# In the supplement of paper PMC12067093, “Discovery and optimisation of a covalent ligand for TRIM25 and its application to targeted protein ubiquitination” (Chemical Science, 2025):
# Targets with the largest changes are over-represented here; the source holds about 21,000 in all.
# Compound: CC1Cc2ccccc2N1C(=O)C1CCCN(C1)C(=O)CCl (mixture of isomers) [TRIM25 ligand 11 (diastereomer mixture)]
# Assay: probe-labelled cysteine peptide fold change vs DMSO (competition) (log2 fold change); higher = less target engagement (more negative = stronger competition)
# Details: 10 µM; THP-1; incubation time: 4 h
# 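Further: competitive chemoproteomic profiling in live THP-1 cells with an iodoacetamide desthiobiotin (IA-DTB) probe, comparing probe-labelled peptide intensities in compound-treated cells against DMSO-treated controls.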
# UniProt Q9NXH8, sequence (Q9NXH8 whole entry, looked up): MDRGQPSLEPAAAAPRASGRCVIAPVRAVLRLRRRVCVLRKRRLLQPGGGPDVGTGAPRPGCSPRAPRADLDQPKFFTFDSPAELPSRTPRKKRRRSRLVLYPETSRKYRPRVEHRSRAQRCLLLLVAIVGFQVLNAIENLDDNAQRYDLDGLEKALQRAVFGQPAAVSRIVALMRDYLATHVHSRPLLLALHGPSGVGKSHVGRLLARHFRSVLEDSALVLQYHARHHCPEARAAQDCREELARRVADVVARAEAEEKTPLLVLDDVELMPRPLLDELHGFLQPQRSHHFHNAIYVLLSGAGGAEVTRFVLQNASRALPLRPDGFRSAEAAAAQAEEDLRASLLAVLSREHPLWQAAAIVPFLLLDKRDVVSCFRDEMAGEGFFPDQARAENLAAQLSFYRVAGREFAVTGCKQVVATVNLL
# UniProt Q9H496, sequence (Q9H496 whole entry, looked up): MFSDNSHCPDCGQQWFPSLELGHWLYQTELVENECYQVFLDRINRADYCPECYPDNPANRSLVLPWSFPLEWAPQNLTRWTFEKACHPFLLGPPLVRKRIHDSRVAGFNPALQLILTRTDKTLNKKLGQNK
# UniProt Q9BRZ2, sequence (Q9BRZ2 whole entry, looked up): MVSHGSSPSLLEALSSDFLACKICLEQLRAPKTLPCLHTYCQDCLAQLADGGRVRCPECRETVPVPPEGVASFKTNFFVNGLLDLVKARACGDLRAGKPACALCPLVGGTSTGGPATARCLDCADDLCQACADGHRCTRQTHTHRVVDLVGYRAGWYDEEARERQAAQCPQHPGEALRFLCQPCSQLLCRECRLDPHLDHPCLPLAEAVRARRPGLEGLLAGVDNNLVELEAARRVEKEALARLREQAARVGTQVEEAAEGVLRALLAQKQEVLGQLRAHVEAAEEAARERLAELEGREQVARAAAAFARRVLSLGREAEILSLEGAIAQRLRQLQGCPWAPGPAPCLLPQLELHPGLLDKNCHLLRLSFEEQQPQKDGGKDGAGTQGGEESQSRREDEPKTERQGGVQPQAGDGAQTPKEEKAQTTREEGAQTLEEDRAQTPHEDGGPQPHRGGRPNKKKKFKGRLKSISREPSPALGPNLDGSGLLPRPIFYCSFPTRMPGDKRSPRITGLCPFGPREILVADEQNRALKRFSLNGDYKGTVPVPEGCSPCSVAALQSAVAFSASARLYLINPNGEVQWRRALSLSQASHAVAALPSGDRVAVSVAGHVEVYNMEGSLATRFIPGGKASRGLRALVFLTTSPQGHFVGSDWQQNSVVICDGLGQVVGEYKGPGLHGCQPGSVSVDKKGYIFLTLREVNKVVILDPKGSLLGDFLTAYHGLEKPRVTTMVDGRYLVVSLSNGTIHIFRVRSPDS
# UniProt Q9Y2Z0, sequence (Q9Y2Z0 whole entry, looked up): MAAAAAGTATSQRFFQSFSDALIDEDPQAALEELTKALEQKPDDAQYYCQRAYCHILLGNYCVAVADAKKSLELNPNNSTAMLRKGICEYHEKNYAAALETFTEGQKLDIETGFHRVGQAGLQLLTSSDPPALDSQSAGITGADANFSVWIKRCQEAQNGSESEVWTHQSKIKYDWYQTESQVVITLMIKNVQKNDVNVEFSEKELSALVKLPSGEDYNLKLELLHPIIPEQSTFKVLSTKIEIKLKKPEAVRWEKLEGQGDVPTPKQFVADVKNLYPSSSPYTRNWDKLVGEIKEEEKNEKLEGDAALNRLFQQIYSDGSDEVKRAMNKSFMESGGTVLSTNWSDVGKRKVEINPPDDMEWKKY
# UniProt Q12962, sequence (Q12962 whole entry): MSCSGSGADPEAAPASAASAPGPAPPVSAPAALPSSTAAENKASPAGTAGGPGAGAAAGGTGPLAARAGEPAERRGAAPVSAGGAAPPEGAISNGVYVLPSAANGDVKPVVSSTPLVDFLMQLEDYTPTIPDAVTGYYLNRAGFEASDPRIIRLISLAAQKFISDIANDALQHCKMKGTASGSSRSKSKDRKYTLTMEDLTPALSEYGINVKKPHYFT
# UniProt Q92844, sequence (Q92844 whole entry, looked up): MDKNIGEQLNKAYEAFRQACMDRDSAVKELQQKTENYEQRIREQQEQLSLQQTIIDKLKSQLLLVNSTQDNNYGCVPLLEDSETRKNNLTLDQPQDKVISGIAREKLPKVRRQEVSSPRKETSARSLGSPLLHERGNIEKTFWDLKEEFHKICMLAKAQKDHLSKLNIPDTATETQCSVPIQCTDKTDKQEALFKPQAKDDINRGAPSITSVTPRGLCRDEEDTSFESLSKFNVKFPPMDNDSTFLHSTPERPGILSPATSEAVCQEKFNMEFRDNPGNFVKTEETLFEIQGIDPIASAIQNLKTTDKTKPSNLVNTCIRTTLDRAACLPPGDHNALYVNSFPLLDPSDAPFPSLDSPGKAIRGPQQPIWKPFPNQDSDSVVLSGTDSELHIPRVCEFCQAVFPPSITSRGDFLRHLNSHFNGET
# UniProt O75663, sequence (O75663 whole entry, looked up): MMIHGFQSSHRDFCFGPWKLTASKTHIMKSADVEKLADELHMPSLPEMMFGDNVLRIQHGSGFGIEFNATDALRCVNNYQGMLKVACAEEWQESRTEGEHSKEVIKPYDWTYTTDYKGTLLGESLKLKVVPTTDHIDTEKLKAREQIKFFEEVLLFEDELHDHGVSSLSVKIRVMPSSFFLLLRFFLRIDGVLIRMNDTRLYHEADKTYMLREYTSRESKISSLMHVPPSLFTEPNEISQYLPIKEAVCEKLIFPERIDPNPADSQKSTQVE
# UniProt Q99805, sequence (Q99805 whole entry, looked up): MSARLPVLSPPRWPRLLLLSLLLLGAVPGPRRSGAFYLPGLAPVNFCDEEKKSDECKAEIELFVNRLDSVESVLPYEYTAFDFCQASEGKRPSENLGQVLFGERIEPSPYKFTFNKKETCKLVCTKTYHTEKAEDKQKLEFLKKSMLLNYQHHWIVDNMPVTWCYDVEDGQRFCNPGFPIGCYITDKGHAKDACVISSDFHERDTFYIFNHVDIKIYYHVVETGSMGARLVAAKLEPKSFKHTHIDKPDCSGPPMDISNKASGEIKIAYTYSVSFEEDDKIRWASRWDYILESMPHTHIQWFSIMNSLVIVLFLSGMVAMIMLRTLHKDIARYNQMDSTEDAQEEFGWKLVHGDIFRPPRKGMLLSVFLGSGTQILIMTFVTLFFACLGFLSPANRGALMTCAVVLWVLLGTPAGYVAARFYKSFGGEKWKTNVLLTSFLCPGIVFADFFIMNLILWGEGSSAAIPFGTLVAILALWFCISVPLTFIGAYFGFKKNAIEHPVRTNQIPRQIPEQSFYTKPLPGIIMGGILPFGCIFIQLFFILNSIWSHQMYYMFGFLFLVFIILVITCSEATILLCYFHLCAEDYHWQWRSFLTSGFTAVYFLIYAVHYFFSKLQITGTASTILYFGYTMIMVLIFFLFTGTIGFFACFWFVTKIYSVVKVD
# UniProt Q9Y5B9, sequence (Q9Y5B9 whole entry, looked up): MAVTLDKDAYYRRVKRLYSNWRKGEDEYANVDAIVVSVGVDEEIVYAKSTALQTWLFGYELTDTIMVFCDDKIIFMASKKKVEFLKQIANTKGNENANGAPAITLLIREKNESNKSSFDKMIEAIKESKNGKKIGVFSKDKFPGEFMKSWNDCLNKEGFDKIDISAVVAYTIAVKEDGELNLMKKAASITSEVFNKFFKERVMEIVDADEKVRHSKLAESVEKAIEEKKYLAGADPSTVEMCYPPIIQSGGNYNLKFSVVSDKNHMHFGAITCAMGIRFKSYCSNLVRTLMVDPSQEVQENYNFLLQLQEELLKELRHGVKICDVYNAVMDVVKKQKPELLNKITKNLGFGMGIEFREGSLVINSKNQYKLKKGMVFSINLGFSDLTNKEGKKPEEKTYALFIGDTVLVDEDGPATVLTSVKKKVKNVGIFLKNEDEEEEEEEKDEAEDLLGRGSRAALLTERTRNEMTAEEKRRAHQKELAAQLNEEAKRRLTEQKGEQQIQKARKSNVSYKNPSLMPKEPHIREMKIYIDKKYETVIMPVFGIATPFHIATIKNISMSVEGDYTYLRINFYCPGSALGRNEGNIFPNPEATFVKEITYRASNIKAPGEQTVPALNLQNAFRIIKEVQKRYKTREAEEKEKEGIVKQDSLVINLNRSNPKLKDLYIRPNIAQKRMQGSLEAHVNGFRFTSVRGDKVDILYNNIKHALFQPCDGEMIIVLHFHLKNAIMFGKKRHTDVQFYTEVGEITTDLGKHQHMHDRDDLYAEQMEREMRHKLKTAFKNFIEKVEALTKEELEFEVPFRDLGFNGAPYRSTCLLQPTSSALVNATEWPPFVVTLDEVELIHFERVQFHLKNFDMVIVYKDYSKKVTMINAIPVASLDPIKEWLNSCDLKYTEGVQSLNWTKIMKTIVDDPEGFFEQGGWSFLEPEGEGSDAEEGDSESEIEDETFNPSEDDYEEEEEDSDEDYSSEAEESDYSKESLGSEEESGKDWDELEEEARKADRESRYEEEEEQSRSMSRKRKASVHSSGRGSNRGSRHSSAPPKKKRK
# UniProt P53597, sequence (P53597 whole entry, looked up): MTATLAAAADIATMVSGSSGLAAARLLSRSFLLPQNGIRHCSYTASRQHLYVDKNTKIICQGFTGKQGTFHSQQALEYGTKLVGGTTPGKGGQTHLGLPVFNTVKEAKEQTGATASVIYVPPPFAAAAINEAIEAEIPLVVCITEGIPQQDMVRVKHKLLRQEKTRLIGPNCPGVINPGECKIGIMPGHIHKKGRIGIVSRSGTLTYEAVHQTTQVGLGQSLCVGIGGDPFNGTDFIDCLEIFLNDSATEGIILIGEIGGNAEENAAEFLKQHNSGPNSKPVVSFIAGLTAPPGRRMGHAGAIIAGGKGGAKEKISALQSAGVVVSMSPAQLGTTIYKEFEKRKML
row,Target,probe-labelled cysteine peptide fold change
1,TOR1AIP2_Q9H496_86_ACHPFLLGPPLVR (UniProt Q9H496),0.0196
2,TAF10_Q12962_174_FISDIANDALQHCK (UniProt Q12962),-0.359
3,TEP1_Q99973_1468_SWEEAVAAGNSGDPYPMGPFACLVQSLR (UniProt Q99973),-0.621
4,SUPT16H_Q9Y5B9_273_NHMHFGAITCAMGIR (UniProt Q9Y5B9),-0.0738
5,SRPRB_Q9Y5M8_246_EFEFSQLPLKVEFLECSAK (UniProt Q9Y5M8),-0.563
6,TOR4A_Q9NXH8_62_LLQPGGGPDVGTGAPRPGCSPR (UniProt Q9NXH8),-0.105
7,TIPRL_O75663_87_VACAEEWQESR (UniProt O75663),-0.00126
8,SRPRB_Q9Y5M8_179_NTPSFLIACNK (UniProt Q9Y5M8),0.000261
9,TANC1_Q9C0D5_741_VVPVSLSELYLLQCNMK (UniProt Q9C0D5),-0.0893
10,TM9SF2_Q99805_250_HTHIDKPDCSGPPMDISNK (UniProt Q99805),-0.0327
11,SUGT1_Q9Y2Z0_88_GICEYHEK (UniProt Q9Y2Z0),-0.0375
12,TANK_Q92844_318_TKPSNLVNTCIR (UniProt Q92844),-0.281
13,SUCLG1_P53597_172+181_LIGPNCPGVINPGECK (UniProt P53597),-0.0541
14,SRRT_Q9BXP5_490_ECELSPGVNR (UniProt Q9BXP5),-0.0201
15,TELO2_Q9Y4R8_813_SWLADVAEKDPDEDCR (UniProt Q9Y4R8),0.0749
16,TRIM56_Q9BRZ2_21_VSHGSSPSLLEALSSDFLACK (UniProt Q9BRZ2),0.674
